Test results published in PubChem BioAssay AID488969 (Vanderbilt High Throughput Screening Facility, 2010).
The full ranking holds about 110,000 compounds; the median of “z-score” is about -0.1, and the highest 2% start at about 2. The list shows a part of the results.

The compounds below were run against Metabotropic glutamate receptor 8 (Rattus norvegicus) (UniProt P70579) (assay: mGluR8 Gi/Go-coupled signaling modulation – cell-based, rat, thallium flux, HTS, primary screen (AID 488969)). Conditions: HEK293 rat mGluR8, GIRK (G protein-gated inwardly rectifying potassium channel) thallium flux, FluoZin2; at 10 µM; stronger effect = higher value; submaximal glutamate (EC20) added with thallium.
Chain of UniProt P70579 (P70579 whole entry, looked up): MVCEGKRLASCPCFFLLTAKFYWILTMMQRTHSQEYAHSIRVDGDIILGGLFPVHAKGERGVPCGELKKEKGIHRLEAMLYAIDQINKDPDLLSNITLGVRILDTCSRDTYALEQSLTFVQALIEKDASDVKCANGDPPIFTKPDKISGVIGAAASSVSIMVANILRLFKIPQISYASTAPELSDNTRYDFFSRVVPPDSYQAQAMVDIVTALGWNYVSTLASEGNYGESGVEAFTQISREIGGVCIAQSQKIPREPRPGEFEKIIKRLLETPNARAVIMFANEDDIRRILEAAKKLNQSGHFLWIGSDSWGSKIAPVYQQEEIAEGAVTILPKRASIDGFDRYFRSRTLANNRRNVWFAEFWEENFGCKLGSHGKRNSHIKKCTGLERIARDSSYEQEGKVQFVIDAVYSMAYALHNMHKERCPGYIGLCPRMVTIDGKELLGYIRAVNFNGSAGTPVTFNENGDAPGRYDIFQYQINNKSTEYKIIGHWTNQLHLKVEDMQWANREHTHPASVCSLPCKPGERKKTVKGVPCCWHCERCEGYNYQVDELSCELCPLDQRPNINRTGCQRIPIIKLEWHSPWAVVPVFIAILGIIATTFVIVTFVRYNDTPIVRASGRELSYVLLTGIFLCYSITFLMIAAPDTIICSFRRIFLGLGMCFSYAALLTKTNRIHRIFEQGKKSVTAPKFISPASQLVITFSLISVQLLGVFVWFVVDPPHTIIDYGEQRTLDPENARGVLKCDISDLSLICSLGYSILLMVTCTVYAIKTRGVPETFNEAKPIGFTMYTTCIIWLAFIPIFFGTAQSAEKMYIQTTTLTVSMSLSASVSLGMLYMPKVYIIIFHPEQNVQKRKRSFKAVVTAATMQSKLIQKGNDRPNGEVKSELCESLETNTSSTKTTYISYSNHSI
`CCc1nc(N2CCN(Cc3ccc4c(c3)OCO4)CC2)c2oc3ccccc3c2n1` was tested, and the z-score was -0.164.
`Cc1c(NC(=O)Cn2nc(C(F)(F)F)c3c2CCCC3)c(=O)n(-c2ccccc2)n1C` showed a z-score of 0.0686.
Work on `COC(=O)c1cccc(OCC(O)Cn2cnc3cc(C)c(C)cc32)c1` (configuration not stated) yielded a z-score of 0.468.
For `CCOc1ccccc1C1C(C(N)=O)=C(C)Nc2nc(CCCO)nn21` (configuration not stated), the z-score was -0.297.
Compound `COc1cc(/C=C2\SC(=S)N(CC(=O)Nc3cccnc3)C2=O)cc(OC)c1OC` has a z-score of -2.09.
`CC1=C(C(=O)Nc2ccccc2)C2(CCCCC2)C(C#N)=C(S)N1` was tested, and the z-score was 0.112.
In the case of `COc1ccc(C(=O)c2c(C(F)(F)F)oc3c2C(=O)c2ccccc2C3=O)cc1`, the z-score is reported as -0.134.
`O=C(Nc1cccnc1Cl)c1cccnc1Cl` showed a z-score of -0.102.
`COc1ccc(NC(=O)CCCN2C(=O)/C(=C\c3ccco3)SC2=S)cc1` was tested, and the z-score was -0.159.
Compound `Cc1ccnc2nc(C(=O)Nc3nnc(CC(C)C)s3)nn12` has a z-score of -0.0103.
For `O=C(CN1CCCC1)Nc1ccccc1Cl`, the z-score was 0.447.
Compound `O=C(Cn1cnc2scc(-c3ccccc3)c2c1=O)N1CCOCC1` has a z-score of -0.259.
Work on `CC(C)CC(=O)Nc1ccc(C(=O)NNC(=S)NC(=O)C2CCCCC2)cc1` yielded a z-score of 0.595.
`CC(C)n1c(Nc2ccccc2)nc2ccccc21` showed a z-score of -1.16.
`COc1ccc2c(CC(=O)OCC(=O)Nc3sc4c(c3C#N)CCC(C)C4)coc2c1` (configuration not stated) gave a z-score of -0.086.
With `CCOc1ccc(NC(=O)N[C@@H](CCSC)C(=O)OC)cc1` the z-score was 0.712.
Compound `Cc1sc2ncn(CC(=O)OCC(=O)NC(C)(C)C)c(=O)c2c1C` has a z-score of 1.21.
Compound `CCN(CC)S(=O)(=O)c1cccc(NC(=O)Nc2cccc(C(F)(F)F)c2)c1` has a z-score of -0.0411.
`COc1ccccc1NC(=O)c1ccc(NC(=O)CSc2nncn2C)cc1` was tested, and the z-score was -0.137.
With `Cc1cc(C)nc(N(C#N)CC(=O)N2CCC(C(N)=O)CC2)n1` the z-score was -0.183.
In the case of `O=C(COc1ccccc1[N+](=O)[O-])N/N=C/c1ccc(O)cc1`, the z-score is reported as -0.203.
Compound `COc1ccc(S(=O)(=O)Cc2ccc(C(=O)NC3CCCC3)o2)cc1` has a z-score of -0.108.
`COC(=O)c1ccc2[nH]c(C)cc(=O)c2c1` was tested, and the z-score was 0.284.
For `COC(=O)c1c(C)n(-c2ccc(OC)cc2)c2ccc(O)cc12`, the z-score was -0.559.
With `Cc1ccc(NCC(=O)c2ccccc2)cc1Cl` the z-score was -0.202.
`COc1ccccc1N1CCc2c(C)nc3c(OC)cccc3c21` gave a z-score of -0.0829.
For `Cc1cccc2cc(CN(CCCO)C(=O)Nc3ccccc3Cl)c(=O)[nH]c12`, the z-score was -0.0225.
With `COc1ccc(N2COC3c4cccc5cccc(c45)C32)cc1` (configuration not stated) the z-score was -0.311.
In the case of `COc1ccc(CC(=O)OCn2nnc3ccccc3c2=O)cc1`, the z-score is reported as -0.0754.
With `CCOc1ccc(-c2nnc(SCC(=O)Nc3ccc4c(c3)c3ccccc3n4CC)n2N)cc1` the z-score was -0.0283.
For `COc1ccc(OC)c(NC(=O)CSc2nnc(Cc3cccn3C)n2CCc2ccccc2)c1`, the z-score was 0.0253.
`NC(=O)c1cc(N)ccc1N1CCCC1` showed a z-score of -0.67.
Work on `CC1CCc2c(C(=O)N3CCN(S(=O)(=O)c4cccs4)CC3)csc2C1` (configuration not stated) yielded a z-score of -0.257.
With `O=C(Nc1ccccc1SCC1CSc2nc3ccccc3c(=O)n21)c1ccccc1` (configuration not stated) the z-score was -0.26.
`COc1ccccc1C(C)NCC(=O)Nc1ccccc1C(F)(F)F` (configuration not stated) gave a z-score of -0.161.
`COc1ccc(N(CC(=O)N2CCC(C)CC2)S(=O)(=O)c2c(C)nn(C)c2C)cc1` showed a z-score of -0.194.
Compound `COc1ccc2cc(C(c3nnnn3CCc3ccccc3)N3CCC(O)CC3)c(=O)[nH]c2c1` (configuration not stated) has a z-score of 0.0569.
`CCc1ccc(NC(=O)COc2ccc(F)cc2C(=O)c2cnn(-c3ccccc3)c2)cc1` was tested, and the z-score was 0.0381.
`COc1ccc2c(=O)c(N3C(=O)c4ccccc4C3=O)c(C)oc2c1` was tested, and the z-score was 0.277.
With `O=S(=O)(c1ccc(F)cc1)N1CCC(N2CCN(c3ccccc3)CC2)CC1` the z-score was 0.169.
Work on `CC(=O)N1CCc2cc(S(=O)(=O)NC(Cc3ccccc3)C(=O)NC3CCCCCC3)ccc21` (configuration not stated) yielded a z-score of 1.14.
`CCN1CCN(CCCNC(=O)c2cc3c(=O)[nH]c4ccccc4c3s2)CC1` was tested, and the z-score was 0.477.
`Cc1ccc(Cl)cc1NC(=O)Cn1cc(C(F)(F)F)cc(Cl)c1=O` showed a z-score of -0.0129.
`COc1ccc2c(c1)CCN(C(=O)CCl)C2C1C(=O)CCCC1=O` (configuration not stated) gave a z-score of -0.164.
`O=C(N/N=C/c1cc(Br)c(O)c(Br)c1)c1cccc(C(F)(F)F)c1` gave a z-score of -0.108.
For `CCc1nnc(NC(=O)CSc2nnc(COc3ccccc3)n2-c2ccc(C)cc2)s1`, the z-score was 0.164.
`Cc1ccc2nc(SCC(=O)Nc3c(C)n(C)n(-c4ccccc4)c3=O)[nH]c2c1` showed a z-score of 1.92.
Work on `Cc1ccc(-c2nc(CSc3nc4ccccc4c(=O)n3CCO)cs2)cc1` yielded a z-score of -0.0706.
Work on `CC1(C)CC2CC(C)(CN2C(=O)COC(=O)c2cc(Cl)cc(Cl)c2N)C1` (configuration not stated) yielded a z-score of -0.444.
For `Cc1ccc(Cl)cc1-c1ccc(/C=N/n2cnnc2)o1`, the z-score was 0.0572.
In the case of `Cc1cc(C)c(C(=O)CSc2nnc(-c3ccccc3Br)o2)cc1C`, the z-score is reported as 0.0376.
Work on `Cc1ccccc1C(=O)NC(C)c1ccc2c(c1)CCCC2` (configuration not stated) yielded a z-score of -0.141.
In the case of `C/C(=N\NC(=O)COc1ccc([N+](=O)[O-])cc1)C(C)(C)C`, the z-score is reported as -0.0988.
With `O=C(CSc1nnc(CN2CCCCC2)n1-c1ccccc1)c1ccc2c(c1)OCO2` the z-score was -0.152.
Work on `COc1cc(OC)cc(C(=O)N[C@H](C(=O)OCC(N)=O)C(C)C)c1` yielded a z-score of -0.131.
Work on `Cc1cc(C)n(CC(O)Cn2cnc3c2c(=O)n(C)c(=O)n3C)n1` (configuration not stated) yielded a z-score of -0.156.
With `O=C(CN1CCOCC1)N1CCN(C(=O)CN2CCOCC2)CC1` the z-score was -0.434.
For `Cc1cc(C)n2c(Nc3ccc4c(c3)OCCO4)c(-c3ccccc3)nc2n1`, the z-score was -1.03.
Work on `COc1cccc(OC)c1C(=O)NC(=S)N1CCN(c2ccc(C(F)(F)F)cc2[N+](=O)[O-])CC1` yielded a z-score of 0.046.
Compound `O=C(O)CC(Cc1ccccc1)C(=O)Nc1ccc([N+](=O)[O-])cc1` (configuration not stated) has a z-score of 0.0189.
Work on `CCOC(=O)c1nn(-c2ccccc2)c(C#N)c1NC(=O)c1nn(CC)cc1Br` yielded a z-score of -1.51.
`CC(=O)c1cccc(NC(=O)Nc2cccnc2)c1` showed a z-score of 0.308.
`Cc1ccc(NC(=O)CSc2nnc(Cc3cccn3C)n2-c2ccc(F)cc2)cc1` gave a z-score of 0.6.
For `Cc1ccc(C)c(S(=O)(=O)N2CCN(C(=O)Cn3c(C(F)(F)F)nc4ccccc43)CC2)c1`, the z-score was -0.0506.
`COc1ccc(N2C(=O)C3CCCN3C2c2cc(OC)c(OC)cc2OC)cc1` (configuration not stated) was tested, and the z-score was 0.128.
Work on `COc1ccc(Nc2cc(C)nc3ccccc23)cc1` yielded a z-score of 2.44.
`Nn1cc(-c2ccccc2)nc1SCC(=O)N1CCN(S(=O)(=O)c2ccc3ccccc3c2)CC1` showed a z-score of 0.37.
